The whole screen tested about 310,000 compounds, of which about 14,000 (4.5%) showed an effect of 50% or more. The effect is printed as a negative number. Some of the results follow.
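Also: peak tail current of the secondary pulse compared with the same well before compound.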

Chain of human ether-à-go-go-related gene (hERG) potassium channel (Q12809 whole entry, looked up): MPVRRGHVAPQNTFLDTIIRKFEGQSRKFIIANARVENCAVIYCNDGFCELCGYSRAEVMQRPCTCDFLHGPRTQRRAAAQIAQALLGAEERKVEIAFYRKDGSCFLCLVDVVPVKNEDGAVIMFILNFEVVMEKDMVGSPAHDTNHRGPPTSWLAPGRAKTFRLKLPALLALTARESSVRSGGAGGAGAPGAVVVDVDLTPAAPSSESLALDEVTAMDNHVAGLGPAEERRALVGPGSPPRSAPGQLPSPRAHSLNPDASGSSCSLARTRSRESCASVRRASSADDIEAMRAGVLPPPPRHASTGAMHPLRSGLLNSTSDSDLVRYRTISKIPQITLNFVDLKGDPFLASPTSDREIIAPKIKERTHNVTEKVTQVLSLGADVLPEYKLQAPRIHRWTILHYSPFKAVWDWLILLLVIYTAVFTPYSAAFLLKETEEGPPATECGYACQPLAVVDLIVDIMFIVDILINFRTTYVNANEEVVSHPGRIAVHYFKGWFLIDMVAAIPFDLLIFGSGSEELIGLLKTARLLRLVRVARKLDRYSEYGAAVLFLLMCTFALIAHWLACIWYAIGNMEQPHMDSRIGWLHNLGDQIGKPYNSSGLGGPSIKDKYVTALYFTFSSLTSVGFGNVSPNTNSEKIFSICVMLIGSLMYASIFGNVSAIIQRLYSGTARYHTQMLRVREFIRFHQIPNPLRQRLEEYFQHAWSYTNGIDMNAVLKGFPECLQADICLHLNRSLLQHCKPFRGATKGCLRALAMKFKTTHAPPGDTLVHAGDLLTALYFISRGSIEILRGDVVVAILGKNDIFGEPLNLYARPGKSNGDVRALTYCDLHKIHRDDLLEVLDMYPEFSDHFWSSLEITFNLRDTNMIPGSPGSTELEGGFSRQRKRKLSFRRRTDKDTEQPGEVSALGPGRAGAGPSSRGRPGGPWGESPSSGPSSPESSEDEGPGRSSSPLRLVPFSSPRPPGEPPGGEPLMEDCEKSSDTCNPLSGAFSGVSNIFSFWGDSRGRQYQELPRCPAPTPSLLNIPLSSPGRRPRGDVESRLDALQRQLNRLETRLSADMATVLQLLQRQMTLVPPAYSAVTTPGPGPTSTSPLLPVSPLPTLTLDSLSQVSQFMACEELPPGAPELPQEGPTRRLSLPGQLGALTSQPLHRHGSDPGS

The experiment addresses human ether-à-go-go-related gene (hERG) potassium channel (human, UniProt Q12809). As to the kind of experiment: primary screen, population patch clamp on CHO cells stably expressing hERG.
As to `Cc1nnc2ccc(-c3ccc(NS(=O)(=O)c4ccc(F)cc4F)cc3)nn12`, the “hERG current change (%, negative = inhibition) at 10uM” value is -25.2%.

For the molecule `O=C(O)CCC(NC(=O)c1ccc(Cl)cc1)C(=O)O` (stereo not shown), the “hERG current change (%, negative = inhibition) at 10uM” value turned out to be 15.3%.

As for `O=C(NCC1CCCO1)c1cc(S(=O)(=O)N2CCOCC2)ccc1Cl` (stereo not shown), the “hERG current change (%, negative = inhibition) at 10uM” value amounted to 16.5%.

As for `O=C(c1ccco1)n1nc(-c2ccccc2)nc1NCc1ccco1`, the “hERG current change (%, negative = inhibition) at 10uM” value is given as 1.93%. Regarding `COCc1cc(=O)n2[nH]c(-c3ccccc3)cc2n1`, the “hERG current change (%, negative = inhibition) at 10uM” value is reported as -4.85%. To `Cc1nn(-c2ccccc2)c2sc(C(=O)OCc3nnc(-c4ccccc4)o3)cc12` belongs -0.735%; to `O=C(O)c1cc(-c2ccc(N3CCOCC3)cc2)nn1-c1ccc(F)cc1F`, 12.7%; to `O=C(Nc1ccnn1C1CCN(CC(O)CO)CC1)C1CCCC1` (stereo not shown), 11.4%. Under `CNC(=O)COc1ccc(S(=O)(=O)Nc2ccccc2)cc1` stands 14.4%; under `O=C(OCC(=O)N1CCCC1)c1c(Cl)ccc(Cl)c1Cl`, -9.3%.

For `CCCn1c(=O)c(C(=O)NNS(=O)(=O)c2ccc(Cl)cc2)c(O)c2ccccc21`, the “hERG current change (%, negative = inhibition) at 10uM” value is given as -11.3%. Under `COc1ccc(NC(=O)CSc2nc3ccccc3c(=O)n2CCCC(=O)NCC2CCCO2)c(OC)c1` (stereo not shown) stands -33.8%. Consider `CN(C)c1ccc(NC(=O)c2ccc3nc[nH]c3c2)cc1`, for which the “hERG current change (%, negative = inhibition) at 10uM” value is 17.7%. Regarding `CC1CCCCN1CC(=O)Nc1ccc(Oc2ccccc2)cc1.Cl` (stereo not shown), the “hERG current change (%, negative = inhibition) at 10uM” value is listed as -50.7%. `Cc1cc(C)n(C(=O)CNC(=O)c2cccc(Br)c2)n1`: the “hERG current change (%, negative = inhibition) at 10uM” value was -22.6%. Under `CC(NC(=O)c1ccccc1NC(=O)c1ccccc1)C(=O)N1CCOCC1` (stereo not shown) stands -12.2%; under `Cl.Cn1c2c(c3ccccc31)CCN1CCC[C@]21c1ccccc1`, -60.7%; under `CCOc1ccc(NC(=O)CSc2nnc(Cn3cnc([N+](=O)[O-])n3)n2C)cc1`, 12.9%. `COc1ccc(N(C)C(=O)c2cn(C)c(=O)c3cc(OC)c(OC)cc23)cc1`: the “hERG current change (%, negative = inhibition) at 10uM” value came out at 21.1%. Consider `O=C(CCCN1C(=O)/C(=C\c2cccs2)SC1=S)Nc1cccnc1`, for which the “hERG current change (%, negative = inhibition) at 10uM” value is recorded as 13.1%.

On to `O=C(N/N=C/c1cc(O)ccc1Br)c1cccnc1`, for which the “hERG current change (%, negative = inhibition) at 10uM” value was found to be 12.4%. Consider `C=CCC1NS(=O)(=O)O[C@H](CCCC)[C@@H]1O` (stereo partly shown), for which the “hERG current change (%, negative = inhibition) at 10uM” value is recorded as 7.06%. Consider `Cc1ccc(OCc2nnc(-c3ccc(Cl)cc3)o2)cc1`, for which the “hERG current change (%, negative = inhibition) at 10uM” value is on record as 3.86%.

Take `COc1ccc(/C=N/NC(=O)COc2cccc3cccnc23)cc1OC`: the “hERG current change (%, negative = inhibition) at 10uM” value is reported as 2.38%. To `COc1ccc(S(=O)(=O)Nc2ccccc2-c2nnn(CC(=O)Nc3ccccc3OC)n2)cc1` belongs 5.49%; to `CC1Cc2cc(/C(O)=C3/C(=O)C(=O)N(Cc4cccnc4)C3c3cccc(O)c3)ccc2O1` (stereo not shown), 19.2%; to `Cc1ccc2cc(C)c(N3CCN(c4ccc(F)cc4)CC3)nc2c1`, 9.96%. Take `COc1ccc(CCNC(=O)CCSc2nc(-c3ccco3)cc(C(F)(F)F)n2)cc1OC`: the “hERG current change (%, negative = inhibition) at 10uM” value is -6.21%. To `Cc1ccccc1C(=O)OC(C)CN1CCOCC1.Cl` (stereo not shown) belongs -28.8%; to `CCc1nnc(NC(=O)CSc2nnc(-c3ccccc3OC)n2-c2ccccc2)s1`, 2.59%. Under `CC(CCc1ccccc1)NC(=O)COC(=O)c1cccn1C` (stereo not shown) stands -5.24%. Under `O=C(CCNS(=O)(=O)c1ccc(Br)s1)NCc1ccc(F)cc1` stands -8.51%; under `CCOC(=O)c1ccccc1NC(=S)N1CCCCC1`, -20.2%.

As to `CCCC(=O)Nc1ccc(NC(=O)c2cccs2)cn1`, the “hERG current change (%, negative = inhibition) at 10uM” value is listed as -0.0941%. Turning to `O=C(N/N=C/c1ccccn1)NC12CC3CC(CC(C3)C1)C2`, the “hERG current change (%, negative = inhibition) at 10uM” value is listed as -3.1%. In the case of `CC(C)c1ccc(S(=O)(=O)N2CCN(C(=O)CN3C(=O)NC(C)(c4ccccc4)C3=O)CC2)cc1` (stereo not shown), the “hERG current change (%, negative = inhibition) at 10uM” value is recorded as -31.6%. Consider `N#Cc1cc([N+](=O)[O-])ccc1N1CCN(c2ccccc2O)CC1`, for which the “hERG current change (%, negative = inhibition) at 10uM” value is recorded as -35%. Under `O=C1NC(=Nc2ccccc2)S/C1=C\c1ccccc1` stands 10.2%; under `CCn1cc(C(=O)N[C@@H](C)C(=O)NCCCn2ccnc2)c(=O)c2cc3c(cc21)OCO3`, 6.29%. Take `CCCCn1c(N)c(N(CCOC)C(=O)C2CC(=O)N(c3ccc(CC)cc3)C2)c(=O)[nH]c1=O` (stereo not shown): the “hERG current change (%, negative = inhibition) at 10uM” value was -4.12%. With `Cc1ccccc1-c1nc(CS(=O)CC(=O)NC(C)CCc2ccccc2)c(C)o1` (stereo not shown), the “hERG current change (%, negative = inhibition) at 10uM” value is -6.61%. On to `COc1ccc(-c2cc(C(F)(F)F)n3nc(C(=O)N4CCCCC4)cc3n2)cc1OC`, for which the “hERG current change (%, negative = inhibition) at 10uM” value stood at 6.62%.

For the molecule `Cc1cc(C)n2nc(CNS(=O)(=O)c3ccc(CC(C)C)cc3)nc2n1`, the “hERG current change (%, negative = inhibition) at 10uM” value is -47.1%. Turning to `COc1ccc(-c2noc(-c3cc4ccccc4oc3=O)n2)cc1`, the “hERG current change (%, negative = inhibition) at 10uM” value was 8.56%. Under `Cc1nnc(N2C(=O)C(O)=C(C(=O)c3ccco3)C2c2cccc([N+](=O)[O-])c2)s1` (stereo not shown) stands 7.75%. To `COc1ccc(NC(=O)CC(c2ccco2)C(C)C)cc1` (stereo not shown) belongs 24.7%; to `N=c1oc2ccc(Cl)cc2cc1C(=O)NC1CCCCCC1`, 5.98%; to `COc1ccc(-c2cc(C(=O)Nc3cnn(Cc4ccccc4C)c3)no2)cc1OC`, -6.07%. Under `Cc1ccccc1OCCC(=O)OCC(=O)Nc1cc(S(=O)(=O)N2CCOCC2)ccc1Cl` stands -27.8%; under `CCCCNC(=O)CN(c1cc(C(F)(F)F)ccc1Cl)S(C)(=O)=O`, -8.01%. With `CCOC(=O)c1c(/N=C/c2cc(C)ccc2O)sc2c1CCC2`, the “hERG current change (%, negative = inhibition) at 10uM” value is recorded as -0.769%. With `Cc1ccc(-c2nc3ccccc3s2)cc1S(=O)(=O)N1CCOCC1`, the “hERG current change (%, negative = inhibition) at 10uM” value is recorded as -7.03%. Under `C=CCn1c(-c2cccn(Cc3ccc(Cl)cc3Cl)c2=O)n[nH]c1=S` stands 7.94%; under `O=C(NNc1cccc([N+](=O)[O-])c1)/C(=C\c1cccnc1)NC(=O)c1ccccc1`, -30.6%; under `C/C(=N\NC(=S)NC(C)C)c1ccc(-n2ccnc2)cc1`, -16.6%. Under `CC1(C(=O)O)CCC(C(=O)Nc2ccc3ccccc3c2)C1(C)C` (stereo not shown) stands 8.02%. With `COC(=O)c1ccccc1NC(=O)CNc1cc(Cl)ccc1N1CCOCC1`, the “hERG current change (%, negative = inhibition) at 10uM” value was -0.508%. To `CSc1nc(N2CCOCC2)c2c(c1C#N)CC(C)(C)OC2` belongs -28.3%; to `O=C(O)C1C2CCC(C2)C1C(=O)NCc1ccccn1` (stereo not shown), 16.1%. To `COC(=O)/C(C#N)=C/c1c(Oc2cc(C)cc(C)c2)nc2ccccn2c1=O` belongs -9.71%; to `CCOc1ccc(NS(=O)(=O)c2ccc(NC(=S)NC(=O)C(C)C)cc2)cc1`, 9.5%; to `COc1ccccc1N1C(=O)C=C(Sc2nc(C)cc(C)n2)C1=O`, 12.6%. To `CC1(C)c2[nH]c3ccccc3c2C[C@@H]2C(=O)N(c3ccc(F)cc3F)C(=O)N21` belongs 10.4%; to `CCCCCCC(C)OC(=O)Nc1cccc2ccccc12` (stereo not shown), 14.5%. For the molecule `O=C(CC(=O)c1cccc([N+](=O)[O-])c1)Nc1ccccc1Cl`, the “hERG current change (%, negative = inhibition) at 10uM” value was -1.22%.

Consider `Cc1ccc(OCc2nnc(SCc3ccc(C#N)cc3)n2-c2ccc(C)cc2)cc1`, for which the “hERG current change (%, negative = inhibition) at 10uM” value is on record as -29.6%. To `Cc1ccnc(-n2c(C)cc(C=O)c2C)c1` belongs 14.5%. To `COc1ccc(CC(=O)Nc2cccc3ccccc23)cc1OC` belongs 2.53%; to `NS(=O)(=O)c1cc2c(cc1Cl)NCNS2(=O)=O`, -12.3%. With `COc1cc2c(cc1OC)C(c1cccs1)N(C(=O)C(C)C)CC2` (stereo not shown), the “hERG current change (%, negative = inhibition) at 10uM” value is -19.2%.

On to `COc1cc(NS(=O)(=O)c2ccc(NC(=O)Cc3ccccc3)cc2)nc(OC)n1`, for which the “hERG current change (%, negative = inhibition) at 10uM” value is listed as 16.1%.

`Cc1ccc(-n2nc(CC#N)c(C#N)c2N)cc1Cl`: the “hERG current change (%, negative = inhibition) at 10uM” value is listed as -3.1%. With `COc1cc(C)c(CN2CCC(n3nccc3NC(=O)C3CC3)CC2)cc1C`, the “hERG current change (%, negative = inhibition) at 10uM” value is reported as -52.7%. In the case of `Cn1cc(CN2CCC(n3nccc3NC(=O)c3ccccc3Cl)CC2)cn1`, the “hERG current change (%, negative = inhibition) at 10uM” value was -32.9%. Regarding `c1ccc2c(-c3nc(-c4ccncc4)no3)cccc2c1`, the “hERG current change (%, negative = inhibition) at 10uM” value is listed as 10.6%. To `O=C(c1ccc(CS(=O)c2cccc(Cl)c2)o1)N1CCCCCC1` (stereo not shown) belongs 11.6%; to `Cc1cc(C)n2ncc(C(=O)Nc3ccc(Cl)c(Cl)c3)c2n1`, 12.7%; to `CN1CCN(c2ccccc2NC(=O)c2ccc([N+](=O)[O-])o2)CC1`, -69.6%.

On to `COC(=O)Nc1c(C)n(C)n(-c2ccccc2)c1=O`, for which the “hERG current change (%, negative = inhibition) at 10uM” value is reported as -8.11%. Regarding `CC1(C)CC(=O)C([N+](=O)[O-])=C(NCCCO)C1`, the “hERG current change (%, negative = inhibition) at 10uM” value is reported as 15.2%. Regarding `N#Cc1cccc(CS(=O)(=O)c2ccc(Cl)cc2)c1`, the “hERG current change (%, negative = inhibition) at 10uM” value is listed as -3.29%. To `Cc1ccc(NC(=O)Cc2ncon2)cc1Cl` belongs -1.71%; to `CS(=O)(=O)c1cccc(C(=O)Nc2ccc(-c3nc4ccccc4[nH]3)cc2)c1`, 11.5%.

As for `COc1cc2c(cc1OC)CN(C(=S)Nc1ccc(OC(F)F)cc1)CC2`, the “hERG current change (%, negative = inhibition) at 10uM” value is reported as -38.8%. As to `Cc1cccc(-n2cc[nH]c2=S)c1C`, the “hERG current change (%, negative = inhibition) at 10uM” value was found to be 15.9%. As for `O=C(O)/C=C/c1ccc(-c2cccc(C(F)(F)F)c2)o1`, the “hERG current change (%, negative = inhibition) at 10uM” value was 22.7%. To `COc1cc2c(cc1OC)CN(c1ccc(F)cc1[N+](=O)[O-])CC2` belongs -27.9%; to `COc1ccc(S(=O)(=O)N(CCc2ccccc2)CC(=O)O)cc1OC`, 5.34%.

The values are drawn from article PMC4336329 (PLoS ONE, 2015).
